Article PMC4336329 (PLoS ONE, 2015)
Out of some 310,000 compounds screened, about 14,000 (4.5%) showed an effect of 50% or more. Effects have a minus sign here. This is one part of the list.

target: human ether-à-go-go-related gene (hERG) potassium channel (human, UniProt Q12809); assay: primary screen, population patch clamp on CHO cells stably expressing hERG
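Further: peak tail current of the secondary pulse compared with the same well before compound.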

human ether-à-go-go-related gene (hERG) potassium channel, sequence (Q12809 whole entry, looked up): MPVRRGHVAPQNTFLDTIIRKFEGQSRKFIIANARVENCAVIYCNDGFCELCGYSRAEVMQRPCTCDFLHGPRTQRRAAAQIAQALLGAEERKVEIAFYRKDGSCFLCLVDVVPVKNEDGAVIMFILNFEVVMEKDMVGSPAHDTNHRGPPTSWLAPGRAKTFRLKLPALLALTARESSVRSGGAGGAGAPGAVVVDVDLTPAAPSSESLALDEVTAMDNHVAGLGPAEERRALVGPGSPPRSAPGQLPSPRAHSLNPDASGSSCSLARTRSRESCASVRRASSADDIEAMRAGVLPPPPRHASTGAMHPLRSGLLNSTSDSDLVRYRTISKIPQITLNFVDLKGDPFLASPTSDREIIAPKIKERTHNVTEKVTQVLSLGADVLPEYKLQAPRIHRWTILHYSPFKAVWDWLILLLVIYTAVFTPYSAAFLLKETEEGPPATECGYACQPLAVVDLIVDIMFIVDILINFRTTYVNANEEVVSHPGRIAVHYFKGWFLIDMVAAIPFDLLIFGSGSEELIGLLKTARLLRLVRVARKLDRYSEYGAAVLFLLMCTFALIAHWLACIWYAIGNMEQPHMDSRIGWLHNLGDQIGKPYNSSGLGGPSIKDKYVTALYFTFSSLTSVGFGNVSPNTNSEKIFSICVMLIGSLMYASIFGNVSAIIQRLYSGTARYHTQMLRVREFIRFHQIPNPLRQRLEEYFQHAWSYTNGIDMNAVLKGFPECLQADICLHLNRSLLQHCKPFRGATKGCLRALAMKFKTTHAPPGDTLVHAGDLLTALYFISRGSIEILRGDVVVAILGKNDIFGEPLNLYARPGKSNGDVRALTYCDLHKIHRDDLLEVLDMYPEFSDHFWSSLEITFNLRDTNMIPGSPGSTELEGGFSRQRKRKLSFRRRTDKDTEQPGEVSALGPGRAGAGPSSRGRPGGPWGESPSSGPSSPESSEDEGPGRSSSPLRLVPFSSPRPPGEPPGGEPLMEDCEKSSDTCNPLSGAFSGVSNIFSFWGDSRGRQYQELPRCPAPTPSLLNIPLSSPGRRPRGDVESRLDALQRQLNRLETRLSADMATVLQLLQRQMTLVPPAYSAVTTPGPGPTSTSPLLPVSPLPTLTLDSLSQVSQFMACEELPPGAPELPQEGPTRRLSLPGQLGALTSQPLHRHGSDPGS

SMILES	hERG current change (%, negative = inhibition) at 10uM
O=C(NCc1ccccc1)c1ccc(F)c(F)c1	5.53%
O=C(Nc1ccc2[nH]ccc2c1)c1ccccc1	24.3%
CC(C)c1ccccc1NC(=O)CNCCOc1ccccc1F.O=C(O)C(=O)O	-1.11%
COc1cc(C(=O)Nc2ccccc2C2COC(=O)C2=N)cc(OC)c1OC (stereo not shown)	-5.99%
CN(C)c1nc(Oc2ccc(/C=N/O)cc2)nc(N(C)C)n1	-11.4%
CC12CS(=O)(=O)CC1SC(=S)N2Cc1ccccc1 (stereo not shown)	-15%
CCC(C)(C)NC(=O)C(c1cccc(OC)c1OC)N(Cc1ccc(OC)cc1)C(=O)CCC(=O)Nc1cc(C)on1 (stereo not shown)	7.48%
CCOCc1nnc(NC(=O)CSc2ccccc2)s1	-8.58%
COC(=O)c1c(C)oc(C)c1S(=O)(=O)NCc1ccc(Cl)cc1	-4.74%
COc1ccc(CN(C)C(=O)c2ccc(OCC(=O)Nc3cccc(C(F)(F)F)c3)c(OC)c2)c(OC)c1	-1.27%
CSc1nnc(C)c(=O)n1COC(=O)c1cc(Cl)ccc1[N+](=O)[O-]	-4.92%
COc1ccc(CNC(=O)CC(C)CC2=NS(=O)(=O)c3ccccc3N2)cc1 (stereo not shown)	13.5%
COC(=O)c1scc(C)c1NC(=O)CSc1ccc(Cl)cc1	-7.73%
O=c1oc(-c2ccccc2NS(=O)(=O)c2ccccc2)nc2ccccc12	5.12%
CCOC(=O)c1cc(NC(=O)c2cc(C)on2)cc(C(=O)OCC)c1	4.18%
COC(=O)/C(=C/c1cccc([N+](=O)[O-])c1)NC(=O)c1ccc(OC)cc1	-11.5%
Cc1nc(NC(=O)c2ccccc2)sc1-c1csc(Nc2ccc(Cl)cc2)n1	14.6%
Cc1ccc(CC2CC(=O)N(CCc3ccc4c(c3)OCO4)C2=O)cc1 (stereo not shown)	3.17%
Cc1ccc(S(=O)(=O)N2CCN(S(=O)(=O)c3c(C)n[nH]c3C)CC2)cc1C	13.2%
Cc1ccc(-c2nnc(SCc3ccccc3F)o2)cc1	-11.9%
COc1ccc(OC)c(/C=C2\Oc3cc(OCC(=O)N4CC(O)C[C@H]4C(=O)O)ccc3C2=O)c1 (stereo partly shown)	4.97%
CC(CCc1ccco1)NC(=O)CSc1cc(=O)n(C)c2ccccc12 (stereo not shown)	-32%
O=[N+]([O-])c1cc(Cl)cc(/C=N/Nc2nc3ccccc3s2)c1O	8.39%
Cc1[nH]c(=O)c(C(=O)c2ccccc2O)cc1C(=O)O	19.8%
CCC1CN(C(=O)N2CCC(C(=O)NCc3ccc(F)cc3)CC2)c2ccccc2O1 (stereo not shown)	-37.5%
O=C(NCCCO)/C(=C/c1ccc(-c2cccc([N+](=O)[O-])c2)o1)NC(=O)c1ccccc1	-31.5%
Cc1cc(C)cc(NC(=O)CN2CCC(NC(=O)Cc3ccccc3)CC2)c1	-25.4%
Cc1cc(C)nc(N2CCC(C(=O)Nc3ccc(Oc4ccccc4)cc3)CC2)n1	11.2%

SMILES	hERG current change (%, negative = inhibition) at 10uM
Cc1nnc(NC(=O)CC23CC4CC(CC(C4)C2)C3)s1	7.75%
CCc1noc(C)c1C(=O)N(C)CC(=O)Nc1ccc(Br)cc1C	1.66%
CCc1nc(NCC(C)C)c(C#N)c2c1COC(C)(C)C2	9.05%
C/C(=N/NC(=O)CNS(=O)(=O)c1ccccc1)c1ccc(Br)cc1	4.79%
Cn1c(CNS(=O)(=O)c2ccc(F)cc2)n[nH]c1=S	22.3%
Cc1ccccc1S(=O)(=O)N1CCN(C)CC1	13.5%
CC(C)(C)NC(=O)CN(C(=O)CS(=O)CC(=O)Nc1ccc(F)cc1)c1ccccc1F (stereo not shown)	3.16%
COc1ccc(OC)c(NC(=O)CSc2nnc(-c3ccco3)o2)c1	-15.7%
Cc1cccc(OCC(=O)NC(=S)Nc2ccc(S(=O)(=O)NC3CCCCC3)cc2)c1	12.3%
O=C(/C=C/Nc1ccc(F)c(F)c1)c1ccc(Br)cc1	-36%
COc1ccc(C2C(C(=O)c3ccco3)=C(O)C(=O)N2CCCn2ccnc2)c(OC)c1 (stereo not shown)	18.2%
CC(=O)c1cc(-c2ccccc2)n(CC(=O)NC2CCCC2)c1C	-3.17%
O=C(Cn1c(=O)oc2cc(S(=O)(=O)N3CCCC3)ccc21)N1CCCC1	4.56%
Cc1cc(C)c2c(=O)[nH]c(SCC(=O)c3ccc(C(C)C)cc3)nc2n1	6.4%
N#Cc1c(N)c(C#N)c(-c2ccc3c(c2)OCO3)c2c1CCCC2	5.73%
CCCCNC(=O)CSc1nnc(Cc2ccccc2)n1CC1CCCO1 (stereo not shown)	11%
CCC(C)NCCOCCSc1ccc(Cl)cc1.O=C(O)C(=O)O (stereo not shown)	-46.9%
Nn1cc(-c2ccccc2)nc1SCC(=O)NC1CCS(=O)(=O)C1 (stereo not shown)	6.53%
NNC(=O)c1ccc(Oc2cc(Cl)cc(Cl)c2)o1	1.1%
Cc1cccc(C(=O)NCC(=O)OCC(=O)N(C)CC(=O)Nc2ccccc2Cl)c1	-40.5%
CCOC(=O)c1c(C)nn(Cc2cccc(Cl)c2)c1N	-18.1%
O=C(Nc1ccc2c(c1)OCCO2)c1cccc(S(=O)(=O)N2CCOCC2)c1	-16.4%
CCOc1ccc(OCCC(=O)OC(C)C(=O)Nc2ccc(C(C)=O)cc2)cc1 (stereo not shown)	8.72%
CC1(C)CCC(=O)N(c2ccc(OC(F)(F)F)cc2)C1=O	18.6%
CC1=C(C(=O)Nc2cccnc2)C(c2cccnc2)n2nc(-c3cccs3)nc2N1 (stereo not shown)	9.78%
CCCc1nc(SCC(=O)Nc2nnc(SCC)s2)c2c(=O)n(C)c(=O)n(C)c2n1	3.68%
COc1ccccc1NC(=O)C12CC3CC(C1)CC(c1ccc(C)cc1)(C3)C2	12.6%
